# Screen size: about 310,000 compounds; about 2,200 (0.71%) showed an effect of 50% or more. Effects have a minus sign here. Some of the results follow.
# Target: human ether-à-go-go-related gene (hERG) potassium channel (human, UniProt Q12809)
# Experiment: primary screen, population patch clamp on CHO cells stably expressing hERG
# Sequence of human ether-à-go-go-related gene (hERG) potassium channel (Q12809 whole entry, looked up): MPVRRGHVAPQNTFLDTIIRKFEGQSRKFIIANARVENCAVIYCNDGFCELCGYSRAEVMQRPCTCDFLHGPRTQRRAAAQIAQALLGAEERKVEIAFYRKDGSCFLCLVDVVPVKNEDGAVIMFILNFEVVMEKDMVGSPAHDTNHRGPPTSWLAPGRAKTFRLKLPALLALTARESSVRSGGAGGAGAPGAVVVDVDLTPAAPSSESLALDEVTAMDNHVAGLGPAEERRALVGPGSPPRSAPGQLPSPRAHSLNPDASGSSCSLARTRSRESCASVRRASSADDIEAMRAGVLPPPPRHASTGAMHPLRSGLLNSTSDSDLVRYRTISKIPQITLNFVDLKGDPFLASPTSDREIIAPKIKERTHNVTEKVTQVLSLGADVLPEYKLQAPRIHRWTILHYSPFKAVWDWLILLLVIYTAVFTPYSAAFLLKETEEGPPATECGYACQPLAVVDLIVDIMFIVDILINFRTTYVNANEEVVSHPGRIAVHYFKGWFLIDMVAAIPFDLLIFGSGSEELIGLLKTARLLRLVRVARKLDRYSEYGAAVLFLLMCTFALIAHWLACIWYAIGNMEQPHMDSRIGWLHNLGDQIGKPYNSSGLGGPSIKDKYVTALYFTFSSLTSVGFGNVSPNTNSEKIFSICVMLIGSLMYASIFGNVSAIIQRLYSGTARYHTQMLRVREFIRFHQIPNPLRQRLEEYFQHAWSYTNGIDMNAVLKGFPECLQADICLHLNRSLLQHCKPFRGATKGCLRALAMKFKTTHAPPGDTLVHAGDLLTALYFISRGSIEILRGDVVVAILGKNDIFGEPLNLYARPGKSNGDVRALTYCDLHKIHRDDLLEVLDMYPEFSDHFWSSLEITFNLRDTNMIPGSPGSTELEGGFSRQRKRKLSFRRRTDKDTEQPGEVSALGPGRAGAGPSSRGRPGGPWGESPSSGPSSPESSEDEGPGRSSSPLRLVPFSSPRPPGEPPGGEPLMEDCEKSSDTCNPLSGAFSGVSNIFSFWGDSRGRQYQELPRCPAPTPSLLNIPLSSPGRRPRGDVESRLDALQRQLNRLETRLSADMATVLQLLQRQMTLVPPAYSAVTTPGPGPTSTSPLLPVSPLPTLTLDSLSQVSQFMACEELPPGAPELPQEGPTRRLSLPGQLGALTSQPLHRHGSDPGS
row,Compound,"hERG current change (%, negative = inhibition) at 1uM"
1,COc1ccc(C(=O)Cn2cnc3ccccc3c2=O)cc1,8.78%
2,C#CCn1c(S(=O)(=O)Cc2ccc(C)cc2)nc(-c2ccccc2)c1-c1ccccc1,18.3%
3,CC(=O)Nc1ccc(S(=O)(=O)Nc2ccccn2)cc1,15.5%
4,Cc1cccc(NC(=O)CSc2nnc(Cc3ccccc3)o2)c1,2.75%
5,COc1ccc(CCNC(=O)Cn2nc(C(=O)O)c3ccccc3c2=O)cc1OC,18.7%
6,CCOc1ccc(-n2c(SCC(=O)Nc3ccc(OC)cc3OC)nc3c(c2=O)SCC3)cc1,4.33%
7,COc1ccc(N/C=C/C(=O)C(F)(F)F)cc1,-0.23%
8,CC1(C)CC(n2[nH]c(=O)c3c2NC(=O)CSC3c2ccc(F)cc2)CCO1 (stereo not drawn),1.61%
9,COc1ccc(-c2nnc(S/C(=C/c3ccc(Cl)cc3)C(=O)O)o2)cc1,13.5%
10,O=C(CN1CCN(S(=O)(=O)c2ccc(F)cc2)CC1)Nc1cccc(C(F)(F)F)c1,-10.1%
11,Cc1ccc(C(=O)Nc2ccc3c(c2)ncn3C)cc1,10.1%
12,CCCN1CCN(CCCNC(=O)Cn2nc(C)n3c(cc4cc(OC)ccc43)c2=O)CC1,11.4%
13,CC(=O)Cc1nsc(NC(=O)c2ccc(-c3ccccc3Cl)o2)n1,4.39%
14,CC(C)[C@H](NC(=O)N1CCC(Cc2ccccc2)CC1)C(=O)O,-2.51%
15,CCN1CC(CN(C)Cc2nc(-c3ccc(Cl)cc3)no2)CC1=O (stereo not drawn),-14.9%
16,CCOC(=O)c1c(N)n(Cc2ccccc2)c2nc3ccccc3nc12,-12.1%
17,O=C(c1cc(-c2ccc(Cl)cc2)n(-c2ccc(Cl)cc2)n1)N1CCOCC1,-56.8%
18,C=CCOC(=O)C1=C(C)N=C2SCCC(=O)N2C1/C=C/c1ccccc1 (stereo not drawn),14.3%
19,CCCCC1CC(C)(C(=O)CSc2nc3ccccc3s2)OC1=O (stereo not drawn),6.47%
20,O=C1C2C(c3ccccc3)=NN(c3ccccc3)C2C(=O)N1c1ccccc1 (stereo not drawn),11%
21,O=C(COC(=O)/C=C/c1ccc(Cl)c(Cl)c1)NC1CCCC1,13.2%
22,CCN(c1ccccc1)S(=O)(=O)c1cc(C(=O)OC(C)C(=O)Nc2ccc3c(c2)OCCO3)ccc1C (stereo not drawn),7.97%
23,CCOC(=O)C1=C(CS(=O)(=O)c2ccc(C)cc2)NC(=O)NC1c1ccc(O)c(OC)c1 (stereo not drawn),16.1%
24,COc1ccc(NC(=O)CN(C)C(=O)c2cn(-c3ccccc3)nc2-c2ccc(F)cc2)cc1,15.8%
25,COc1ccc2c(c1)CCc1c(C(=O)N3CCCCCC3)noc1-2,-1.37%
26,CNC(=O)c1sc(=S)n(-c2ccc(OC)cc2)c1N,18.1%
27,Cc1ccc(CN2CCN(CC(=O)NC(C)CCc3ccccc3)C2=O)cc1 (stereo not drawn),3.74%

row,Compound,"hERG current change (%, negative = inhibition) at 1uM"
1,COc1ccc(-c2noc(CCC(=O)NCC3CCCO3)n2)cc1OC (stereo not drawn),16.4%
2,O=C(O)CN1C(=O)C(=O)N(Cc2ccccc2F)C1=O,2.93%
3,Cc1cc(C)n2nc(C(=O)OCCOc3ccc(F)cc3)nc2n1,5.07%
4,CC(NC(=O)COC(=O)Cn1cnc2ccccc2c1=O)C1CC2CCC1C2 (stereo not drawn),7.5%
5,Cc1cc2c(c(=O)n1CCN(C)C)C(c1ccccc1Br)C(C#N)=C(N)O2 (stereo not drawn),5.17%
6,O=C(NCCN1CCN(c2ccccc2)CC1)c1ccc(NC(=O)C2CCCO2)cc1 (stereo not drawn),9.33%
7,COc1cccc(CNc2ccc(S(=O)(=O)N3CCN(C)CC3)cn2)c1,5.21%
8,COc1ccc(NC(=O)NNC(=O)COc2ccc3ccccc3c2)cc1,9.41%
9,C=CCSc1nc(O)c(C2OC(=O)c3c2ccc(OC)c3OC)c(=O)n1-c1ccccc1 (stereo not drawn),1.11%
10,COC(=O)c1ccc(C(NC(=O)OCc2ccccc2)/C(C)=C/[C@@H](C)C(=O)NCc2ccc(-c3ccccc3)cc2)cc1 (stereo partly drawn),2.7%
11,Cc1csc(NC(=O)C(CC(C)C)NS(=O)(=O)c2ccc3c(c2)oc(=O)n3C)n1 (stereo not drawn),11.1%
12,Cc1cc(C)nc(SCc2cc(=O)c(OC(=O)c3cc([N+](=O)[O-])ccc3Cl)co2)n1,4.51%
13,CC(=O)Nc1cccc(NC(=O)CSc2nnc(NC(=O)C3CC3)s2)c1,21.1%
14,O=C(Nc1ccccc1C(=O)N1CCCCC1)c1ccc(Cl)cc1Cl,-79.6%
15,CCO[C@H]1OC(C(=O)NC2CC2)=C[C@@H](C)[C@@H]1CCCO,16.4%
16,O=C(O)CC1CCS(=O)(=O)C1 (stereo not drawn),18.4%
17,CCn1cc(S(=O)(=O)CC(=O)Nc2cc(C)on2)c2ccccc21,15.6%
18,CCN(CC)C(=O)c1sc2nc(-c3cccs3)cc(-c3cccs3)c2c1N,-1.95%
19,CCN1C(=O)[C@H]2[C@@H](c3ccc(C)cc3)N3C(=O)N(c4ccccc4)C(=O)[C@@]3(C)[C@H]2C1=O,3.9%
20,Cc1cc(NC(=O)CSc2nnc(-c3c[nH]c4ccccc34)n2C)no1,13.7%
21,c1ccc(CCN2CCC(N3CCN(c4ccccc4)CC3)CC2)cc1,-33.8%
22,COc1ccc(CN2CCCC(C(=O)c3ccc(Cl)cc3)C2)cc1Cn1cccn1 (stereo not drawn),-78.4%
23,Cn1c(OCc2cccnc2)nc2c1c(=O)n(Cc1ccc(F)cc1)c(=O)n2C,-6.27%
24,CC(=O)Nc1ccc(C(=O)N/N=C/c2cccnc2)cc1,15.2%
25,COc1cccc(-c2nnc(NC(=O)C(C)C)o2)c1,11.8%
26,CCN1/C(=C2\SC(=S)N(Cc3ccccc3)C2=O)Sc2ccccc21,9.7%
27,Cc1ccc(C)c(OCCC(=O)OCC(=O)Nc2ccc(N3CCOCC3)cc2)c1,21.7%
